Results on 86 compounds are retold here after ChEMBL document CHEMBL4888484, “Replenishing the malaria drug discovery pipeline: Screening and hit evaluation of the MMV Hit Generation Library 1 (HGL1) against asexual blood stage Plasmodium falciparum ,using a nano luciferase reporter read-out” (2022).

The whole screen tested about 150,000 compounds, of which about 540 (0.36%) showed an effect of 50% or more. This is one part of the list.

For this experiment, the system named is Plasmodium falciparum. The experiment is described as follows: Primary screen in NF54 nanoGlo assay, in single point, at 2uM, 72h; a lower Z score goes with more inhibition. It is filed as functional, Erythrocyte. The settings on record: timepoint 72 hour.
For the compound `O=c1ccc(F)cn1CCC1CCCC1`, the % Inhibition – broadly, the change of the read-out against control, counted positive when it falls – is -1% and the Z score is reported as 0.12.
The matching figures for `CN(Cc1ncc[nH]1)c1nc2c(c(=O)[nH]1)Cc1ccccc1OC2`: -15% and 1.9.
Regarding `Cc1cccc(=O)n1CCCNC(=O)[C@H](C)n1cncn1`, the “% Inhibition” value is recorded as -11% and the Z score is listed as 1.83.
As for `CCc1cn(CC(=O)Nc2ccc(N3CCOCC3)cc2)cn1`, the “% Inhibition” value was -1% and the Z score was found to be 0.07.
The matching figures for `CC[C@H]1CN(C(=O)c2cc(C)ncc2O)CCN1C`: -14% and 1.99.
As to `Cc1cc(NC(=O)N(CCO)C2CCCCC2)ccn1`, the “% Inhibition” value is reported as -1% and the Z score was found to be 0.12.
Taken in the same sequence, the figures for `O=C(O)[C@H]1CCCN1C(=O)C1CC1c1cccc(C(F)(F)F)c1` (some centres not stated) were -8% and 1.15.
Taken in the same sequence, the figures for `CC(C)(CCC#N)CN1CCC(O)(C(F)(F)F)CC1` were 5% and -0.88.
Taken in the same sequence, the figures for `Cc1ccc(S(=O)(=O)N[C@@H]2CCCCC[C@H]2O)c(C)c1` were 4% and -0.62.
In the case of `O=C(c1ccncc1F)N1CCCC[C@@H]1CCc1ccccn1`, the “% Inhibition” value is -23% and the Z score was determined as 2.29.
The matching figures for `Cc1cc(Br)c(F)cc1NC(=O)N1CC2CCC(C1)O2`: -6% and 1.16.
Taken in the same sequence, the figures for `O=C(c1ccccc1C(F)(F)F)N1CCC(=C2CCC2)CC1` were -8% and 1.2.
With `NC(=O)Cc1n[nH]c(C2(N3CCCC3)CCCC2)n1`, the “% Inhibition” value is listed as -2% and the Z score is given as 0.33.
The matching figures for `C[C@H](Nc1ccc(C(=O)N2CCC(N3CCOCC3)CC2)cn1)C1CC1`: -19% and 1.93.
For the compound `CCc1nncn1CCNC(=O)Nc1cccc(-c2ncc(C)o2)c1`, the “% Inhibition” value is given as -4% and the Z score is recorded as 0.65.
Taken in the same sequence, the figures for `COc1cc(NC(=O)c2coc(Br)c2)ncn1` were -12% and 1.49.
Taken in the same sequence, the figures for `CN(C)CCc1nc(C2(c3ccccc3)CC2)nn1[C@H]1CCS(=O)(=O)C1` were -3% and 0.34.
The matching figures for `Cc1csc(C2(NCc3nc(C)c(C)[nH]3)CCOCC2)n1`: -15% and 1.98.
For the compound `COc1cccc(-c2nc(C3CCN(S(=O)(=O)c4ccc(CC(C)C)cc4)CC3)no2)c1`, the “% Inhibition” value is -7% and the Z score was found to be 0.81.
The matching figures for `Cc1nn(CCO)c(N)c1[C@]1(O)C(=O)N(Cc2ccccc2Cl)c2ccccc21`: -5% and 0.81.
In the case of `CCCn1nc(C)cc1CN(C)C(=O)[C@H]1CCc2nn(CC)c(=O)n2CC1`, the “% Inhibition” value is recorded as 5% and the Z score is -0.71.
Taken in the same sequence, the figures for `Cn1cnc(CNC(=O)N2CCC(OC3CCCCC3)CC2)n1` were 2% and -0.22.
For `Cc1ccc2nc(NC(=O)CCn3ccnn3)sc2c1`, the “% Inhibition” value is 1% and the Z score is -0.13.
On to `O=C(CCc1cn[nH]c1)N1CCC2(CCCCCC2)C1`, for which the “% Inhibition” value is -12% and the Z score turned out to be 1.56.
The matching figures for `CC(C)(C)CN(C(=O)[C@H]1CC12CCS(=O)(=O)CC2)c1ccccc1`: 4% and -0.66.
As to `CN(CCCCO)C(=O)[C@H]1N(C(=O)OC(C)(C)C)CC12CCCC2`, the “% Inhibition” value is listed as 4% and the Z score was -0.5.
Taken in the same sequence, the figures for `NC(=O)C1CCCC1NC(=O)CC1CCC(C(F)(F)F)CC1` (configuration not stated) were -2% and 0.31.
The matching figures for `O=C(Nc1nc2ccccc2n1CCN1CCCCC1)c1cccc(COc2ccc(Cl)cc2)c1`: 1% and -0.19.
Taken in the same sequence, the figures for `COc1cc(OC)nc(Oc2ccccc2C(=O)Nc2cc(C)cc(Br)c2)n1` were -33% and 3.85.
`CCOC(=O)c1cn(C)nc1NC(=O)CC1CCC1`: the “% Inhibition” value was -1% and the Z score is reported as 0.12.
The matching figures for `Cc1cnn(CCC(=O)N2C[C@@H]3CC[C@H]2CN(CC(=O)N(C)C)C3)c1`: -2% and 0.37.
Consider `CC1(C)CN(C(=O)NCCc2cscn2)CCc2ccccc21`, for which the “% Inhibition” value is -23% and the Z score is given as 3.13.
As to `CC(=O)NC1CCC(Nc2ccc(C)cc2OC[C@H]2CCCO2)CC1` (some centres not stated), the “% Inhibition” value is -4% and the Z score is 0.55.
On to `CCCc1occc1C(=O)N1CCC2OCC(=O)NC2C1` (configuration not stated), for which the “% Inhibition” value is given as -2% and the Z score was determined as 0.25.
Taken in the same sequence, the figures for `CC1C(=O)CCC1CC(=O)N1CCC(Cc2nc3ccccc3[nH]2)CC1` (configuration not stated) were 2% and -0.36.
Take `CC(=O)c1cc(CNCCCc2csc(N)n2)n(C)c1`: the “% Inhibition” value is given as -4% and the Z score is 0.77.
As for `CC(C)[C@H](O)C1(CNc2ncccc2C#N)CC1`, the “% Inhibition” value is listed as -6% and the Z score is 0.54.
Taken in the same sequence, the figures for `COc1ccccc1CCNc1cc(C2CC(N)C2)nc(C2CC2)n1` (configuration not stated) were 6% and -1.24.
Taken in the same sequence, the figures for `COCc1csc(NC(=O)N2CCC(CCc3ccc(F)cc3F)CC2)n1` were -19% and 2.51.
The matching figures for `Cc1n[nH]c(C)c1CCCNC(=O)Nc1cccc(N2CCN(C)C2=O)c1`: -2% and 0.44.
In the case of `Cc1cnc(N2CCC[C@H](n3ccc(C(F)(F)F)n3)C2)nc1C`, the “% Inhibition” value was -16% and the Z score turned out to be 1.96.
Regarding `Cc1c(CN2C[C@@H]3CC[C@H]2CN(C(=O)c2cccnc2)C3)oc2ccccc12`, the “% Inhibition” value is reported as -20% and the Z score was 1.97.
The matching figures for `O=C(COc1ccccc1Cl)Nc1ccc(-c2nc3cnccc3o2)c(O)c1`: 22% and -2.54.
Taken in the same sequence, the figures for `CCC(CC)n1nc(C)cc1NC(=O)Cn1cnnn1` were 4% and -0.81.
The matching figures for `CC(C)N(C)Cc1nnnn1CC(=O)N(C)C[C@H](O)c1ccccc1`: -4% and 0.55.
Turning to `COc1ccc2c(c1)OCCN([C@@H](C(=O)O)c1ccccc1F)C2`, the “% Inhibition” value was -18% and the Z score is given as 1.99.
`Cc1nc(C)n(Cc2cc3c(cc2Br)OCCO3)n1`: the “% Inhibition” value is listed as -14% and the Z score is given as 1.34.
Taken in the same sequence, the figures for `Cc1cc(CNC(=O)N[C@H](c2nccs2)C(F)(F)F)sc1C` were 8% and -1.5.
The matching figures for `Cn1c(=O)c2cn3c(c2n(C)c1=O)[C@@H](c1c(O)ccc2ccccc12)Nc1ccccc1-3`: -4% and 0.73.
The matching figures for `COc1ccc(-c2nn3c(NC4CCCC4)cc(C)nc3c2C)cc1OC`: 1% and -0.13.
As for `CC(=O)N1CC[C@H](Nc2nc(-c3ccccc3)nc3ccccc23)[C@@H](O)C1`, the “% Inhibition” value was -12% and the Z score is reported as 1.2.
The matching figures for `c1cn(-c2ccc(CN3CCC4(CC3)OCCO4)cc2)cn1`: 3% and -0.42.
Taken in the same sequence, the figures for `NC(=O)[C@H](Cc1ccccc1)n1cnc2ncccc2c1=O` were 2% and -0.32.
In the case of `O=C1C[C@H](CNc2nc3nonc3nc2N2CCCCC2)CN1C1CC1`, the “% Inhibition” value was -13% and the Z score stood at 1.61.
Take `COCCNCCOc1cc(C)c(Cl)c(C)c1`: the “% Inhibition” value amounted to 3% and the Z score is -0.4.
The matching figures for `CC(C)[C@H](O)C1(CNCc2cc(Br)ccc2Cl)CC1`: 10% and -1.02.
With `CCOc1ccc(NC(C)C(=O)NC2CCCC(C)C2C)cc1S(=O)(=O)N1CCOCC1` (configuration not stated), the “% Inhibition” value is -10% and the Z score was found to be 2.01.
Taken in the same sequence, the figures for `CCN(C(=O)C(C)C)[C@H](c1ccc(C)cc1)c1c[nH]c2ccccc12` were 15% and -2.26.
Taken in the same sequence, the figures for `COC[C@H]1[C@@H](NC(=O)c2cc(C)oc2C)[C@H]2CCO[C@H]21` were -13% and 1.19.
The matching figures for `Cc1noc(-c2cccnc2NC[C@H](O)CO)n1`: -8% and 0.89.
For the compound `CCOc1ccc(S(=O)(=O)Nc2ccc3c(c2)C(=O)NCCO3)cc1`, the “% Inhibition” value is -15% and the Z score turned out to be 1.74.
The matching figures for `CN1CCN(c2cc(C3=CCCCC3)nc(N)n2)CC1`: -4% and 0.62.
The matching figures for `Cc1ncc2ccc(C(=O)N[C@H]3CCCc4cnn(C(C)C)c43)cn12`: 3% and -0.32.
The matching figures for `Cc1nc(NCC[C@H]2CCCOC2)c2ccccc2n1`: -7% and 0.68.
Take `Cc1ccc(CNC(=O)[C@@H]2CCCCC(=O)N2C)cc1`: the “% Inhibition” value was -23% and the Z score is 2.67.
On to `CC1CCC2C(CCC(C)N2C(=O)c2cc3nc4c(c(C(F)(F)F)n3n2)CCc2ccccc2-4)C1` (configuration not stated), for which the “% Inhibition” value worked out at 30% and the Z score was -0.09.
The matching figures for `Oc1cccc(CNCC2(c3ccccc3)CC2)c1`: 3% and -0.28.
As to `O=C(CCCc1ncc(-c2ccccc2)o1)NCc1cccnc1N1CCOCC1`, the “% Inhibition” value was -18% and the Z score stood at 3.44.
With `Cc1cc(CN2CCCS2(=O)=O)no1`, the “% Inhibition” value is 2% and the Z score is -0.39.
Regarding `O=C(CN1CCCN(C2CC2)CC1)Nc1ccc(C(F)(F)F)cc1`, the “% Inhibition” value is -7% and the Z score amounted to 1.01.
Taken in the same sequence, the figures for `CCCOCc1nc([C@H]2C[C@@H](c3ccccc3)N3CCC[C@H]23)no1` were 2% and -0.35.
Taken in the same sequence, the figures for `C[C@H](NC(=O)N(C)Cc1noc(C2CCC2)n1)c1ccccc1` were -13% and 1.68.
Taken in the same sequence, the figures for `Cc1cc(=O)cc(C(=O)N2CCC(F)(F)CC2)[nH]1` were -4% and 0.88.
As for `COc1cc(C(=O)NC[C@@]2(c3cnn(C)c3)CCCO2)ccc1F`, the “% Inhibition” value was -11% and the Z score amounted to 1.09.
Taken in the same sequence, the figures for `COC(=O)C1CCCCCC1NS(=O)(=O)N(C)C(C)C` (configuration not stated) were -7% and 0.76.
Taken in the same sequence, the figures for `C=CCN(CC(=O)O)C(=O)c1ccc(Cl)c(C)c1` were -9% and 0.91.
The matching figures for `c1ccc(-c2csc(CN3CCC[C@H]3c3nc(C4CC4)no3)n2)cc1`: 5% and -0.71.
As to `O[C@H]1CCCN(Cc2cc3ccc(F)cc3nc2-c2cccc(Cl)c2)C1`, the “% Inhibition” value is reported as -10% and the Z score is reported as 1.4.
With `Cc1n[nH]c2c1CN(S(=O)(=O)c1ccc(-c3c(C)noc3C)s1)CC2`, the “% Inhibition” value is -11% and the Z score is reported as 1.35.
Taken in the same sequence, the figures for `CN1C(=O)[C@@]2(NC(=O)c3cnn(-c4ccccc4)c3N2)c2ccccc21` were -8% and 1.1.
In the case of `CCn1cnnc1-c1nn(C)c2c1CN(C(=O)c1ccc(C)nc1)CC2`, the “% Inhibition” value is reported as -7% and the Z score was 1.34.
The matching figures for `Cc1cc2n(n1)[C@@H](c1cn(-c3ccccc3)nc1-c1ccccc1)Nc1c(C)cccc1-2`: 22% and -3.42.
The matching figures for `O=C(N[C@@H](CCO)C1CCCCC1)C(F)(F)C1(O)CCCCC1`: -34% and 3.99.
Taken in the same sequence, the figures for `CCCN(CCC)C(=O)c1ccc(C)n1C` were -14% and 2.
For `CC(=O)N[C@@H]1CN(C(=O)Cc2cccc3ccccc23)C[C@H]1CO`, the “% Inhibition” value is -23% and the Z score amounted to 3.96.
Taken in the same sequence, the figures for `Cc1ccsc1-c1nnc(CC(=O)N2CCN(c3ccccc3)CC2)o1` were 3% and -0.33.
